Measured values published in PMC3672086, “TWEAK-Independent Fn14 Self-Association and NF-κB Activation Is Mediated by the C-Terminal Region of the Fn14 Cytoplasmic Domain” (PLoS ONE, 2013).

Columns and labels:
[1] = target: the molecule itself; assay: SDS-PAGE under non-reducing conditions with Western blot; lysates of three cancer cell lines with endogenous Fn14; no DTT, not heated; anti-Fn14 (CST) blot
[2] = target: the molecule itself; assay: cross-linking; cell surface proteins of transfected HEK293/NF-κB-luc/Fn14-HA cells cross-linked with 1 mM BS3 in PBS, 20 min, room temperature; lysis in HNTG buffer, reducing SDS-PAGE, anti-myc Western blot
[3] = target: the molecule itself; assay: SDS-PAGE under non-reducing conditions with Western blot; HNTG lysates of transfected HEK293 cells; no DTT in loading buffer, sample not heated; anti-myc blot; shows disulfide-linked dimers formed during lysis

B1: endogenously expressed Fn14 (receptor)
chain: not shown
notes: human Fn14; 129-aa precursor cleaved by signal peptidase into the mature 102-aa protein; also called endogenous Fn14; source: endogenous, lysates of three cancer cell lines (A375 named in the text)
[1]
  stoichiometry N: 2

B2: myc epitope-tagged full-length, wild-type human Fn14 (Fn14-FL) (receptor)
chain: not shown
notes: The signal peptide is cut off in the cell; the mature protein starts with the myc tag; also called Fn14-WT; Fn14-FL-myc; source: HEK293 or HEK293/NF-κB-luc/Fn14-HA cells, transiently transfected (pcDNA6/Fn14-FL), on cells or in lysate; not shown: myc, N-terminal, kept
[2]
  stoichiometry N: 2

B3: myc-tagged Fn14 with C104S substitution (receptor)
chain: not shown
notes: also called Fn[…]S; source: HEK293 cells, transiently transfected (pcDNA6), in lysate; not shown: myc, N-terminal, kept
[3]
  stoichiometry N: 2
